Hit rate of the full screen: of about 300,000 compounds, about 1,100 (0.37%) were called active. Inconclusive means that the source gave no clear call. Such entries were picked first, then a sample of the others.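 The calls were made as follows: active = inhibition past about -25% in most replicates, and total fluorescence under double the plate's negative control median (limit read from the data); inconclusive = replicates evenly split on the limit, or fluorescence at least double controls; inactive = too little inhibition in most replicates.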
target: Zinc finger protein mex-5 (Caenorhabditis elegans) (UniProt Q9XUB2); assay: MEX-5 zinc finger RNA-binding disruptors – biochemical, C. elegans, fluorescence polarization, MLPCN library, primary screen (AID 1832); settings: MEX-5/FITC-TCR2 RNA binding, at 10 µM, active compounds read low;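 also: 0% = DMSO and -100% = 5 µM competing unlabeled TCR2 RNA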
Chain of UniProt Q9XUB2 (Q9XUB2 whole entry, looked up): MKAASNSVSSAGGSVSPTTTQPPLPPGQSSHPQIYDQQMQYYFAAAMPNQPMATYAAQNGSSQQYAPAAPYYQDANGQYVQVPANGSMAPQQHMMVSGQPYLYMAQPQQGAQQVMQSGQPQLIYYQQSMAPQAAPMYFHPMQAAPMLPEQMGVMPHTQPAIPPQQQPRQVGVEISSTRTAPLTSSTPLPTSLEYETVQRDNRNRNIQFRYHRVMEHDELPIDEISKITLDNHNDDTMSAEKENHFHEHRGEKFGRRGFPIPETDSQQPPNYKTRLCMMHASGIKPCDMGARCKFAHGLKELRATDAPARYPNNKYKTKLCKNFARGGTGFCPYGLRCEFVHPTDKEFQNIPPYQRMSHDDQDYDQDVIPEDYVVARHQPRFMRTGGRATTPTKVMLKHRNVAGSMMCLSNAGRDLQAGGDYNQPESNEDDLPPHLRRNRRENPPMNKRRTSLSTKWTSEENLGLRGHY

Activity score (negative = inhibition of binding), inconclusive:
COc1ccc(C2c3cc(OC)c(OC)cc3CCN2S(C)(=O)=O)cc1OC (centres undefined) -23.6%
O=C(CC1Nc2ccccc2NC1=O)c1ccccc1 (centres undefined) -21.1%
CCCCC1(C)OC(=O)C(=Cc2ccc(N(CC)CC)cc2)C(=O)O1 (centres undefined) -17.5%
CCCN1C(=O)S/C(=C/c2ccc(N3CCOCC3)o2)C1=O 84.1% [fluorescent]
CC(/C=C1\N=C(SCc2ccccc2Cl)SC1=O)=C\c1ccccc1 -25.1%
CCN1C(=O)/C(=C\N(C)C)NC1=S -23.7%
O=C1CSC(=S)N1/N=C/c1ccc(Cl)c([N+](=O)[O-])c1 -16%
CCN1/C(=C\c2ccc3cc(C)ccc3[n+]2CC)Sc2cc(C)c(C)cc21 46.9% [fluorescent]
O=c1c(O[C@@H]2O[C@H](CO)[C@@H](O)[C@H](O)[C@H]2O)c(-c2ccc(O)c(O)c2)oc2cc(O)cc(O)c12 45.5% [fluorescent]
COc1ccc(C(=O)/C=C/c2ccc(N3CCCCC3)c([N+](=O)[O-])c2)c(OC)c1 -19%
Cc1nn(-c2ccccc2)c(N2CCCC2)c1/C=C1\N=C(c2ccc(F)cc2)OC1=O -22.8%
O=C(N/N=C/c1cc(Br)c(O)c(Br)c1O)c1ccc2c(c1)OCCO2 60.6% [fluorescent]
O=C1/C(=C/c2ccco2)Oc2c1ccc(O)c2CN1CCCCC1 -82.5% [fluorescent]
O=C(NNC(=O)c1ccccc1O)c1cccc(Br)c1 -22.6%
S=C(NCc1ccncc1)Nc1ccc(Cl)cc1Cl -22.4%
O=C1c2ccccc2S(=O)(=O)c2cc(N3CCC(C(=O)N4CCCCC4)CC3)ccc21 -15.7%
O=C(CCN1C(=O)/C(=C\c2ccco2)SC1=S)Nc1ccc(C(=O)O)c(O)c1 -21%
Nc1nonc1C(=O)NCCN=Cc1cc(Cc2ccccc2)cc(Br)c1O -22%
Cc1ccc(N2C(=O)C3C(C(=O)c4ccccc4)=NN(c4ccccc4)C3C2=O)cc1 (centres undefined) -77.6% [fluorescent]
CCOc1cc(/C=C2\C(=O)NN(c3ccccc3)C2=O)cc([N+](=O)[O-])c1O -25.3%
Cc1cccc(N2C(=O)c3cccc4c(N(C)CCO)ccc(c34)C2=O)c1 -105% [fluorescent]
COCCNC(=O)/C(C#N)=C/c1ccc(N2CCOCC2)o1 61.1% [fluorescent]
CC(C)c1ccc(/C=C(\NC(=O)c2ccccc2)C(=O)NCCN2CCOCC2)cc1 -18.8%
CCN(CC)CCN(Cc1cc2ccc(C)c(C)c2[nH]c1=O)C(=S)NCc1ccco1 -18.9%
Cc1ccc(CS(=O)Cc2ccc(C(=O)N3CCN(c4ccccc4)CC3)o2)cc1 (centres undefined) -19.2%
Cc1ccc(N=C2NC(=O)/C(=C\c3ccc(C)s3)S2)cc1 -24.5%
COc1ccc(NC(=O)/C(C#N)=C\c2ccc(N3CCOCC3)o2)cc1 86% [fluorescent]
COC(=O)c1cc(N2CCN(C)CC2)nc2ccccc12 -93.1% [fluorescent]
COc1ccccc1OCC(=O)N/N=C/c1c(O)ccc2ccccc12 -21.4%
CCN(CC)c1nc(-c2nn[nH]n2)nc(N(CC)CC)n1 -12.3%
NS(=O)(=O)c1ccc(NC(=S)NC(=O)/C=C/c2ccco2)cc1 -24.9%
CCN(CC)c1ccc2cc(C(=O)NNC(=O)c3ccc(S(=O)(=O)N4CCCCC4)cc3)c(=O)oc2c1 1.63% [fluorescent]
N#C/C(=C\N1CCN(Cc2ccc3c(c2)OCO3)CC1)c1nc2ccccc2s1 -21.8%
N#C/C(=C/c1ccc(N2CCOCC2)o1)C(=O)Nc1ccccc1 54.1% [fluorescent]
Cc1ccccc1CSCCNC(=S)Nc1ccccc1 -17.4%
CCOC(=O)/C(=N\Nc1ccc(C(C)=O)cc1)c1csc(Nc2ccccc2)n1 -18%

Activity score (negative = inhibition of binding), active:
O=c1[nH]c(-[n+]2ccccc2)c(/C=N/NC([S-])=Nc2ccccc2)s1 -82.2%
CCCCCOc1ccc(/C=c2\sc3nc(=O)c(-c4ccccc4)nn3c2=O)cc1OC -31.2%
COc1ccc(/C=C/C(=O)c2c(C)cc(C)[nH]c2=O)c2ccccc12 -28%
Nc1c(O)ccc2c1C(=O)c1ccccc1C2=O -39.4%
O=C1SC(SCc2ccccc2Cl)=N/C1=C\c1ccc(C(=O)O)cc1 -40.7%
CCN(CC)c1ccc2cc(C#N)c(=O)oc2c1 -56.9%
Cc1ccc2oc(=O)c(/C=C(\O)c3cccs3)nc2c1 -44.8%
COc1ccc(C(=O)/C=C/Nc2ccc([N+](=O)[O-])cc2C)cc1OC -43.3%

Activity score (negative = inhibition of binding), inactive:
CC(=O)Nc1ccc(S(=O)(=O)Nc2ccccn2)cc1 1.11%
O=C(CN1C(=O)NC2(CCOc3ccccc32)C1=O)c1ccc[nH]1 (centres undefined) -2.23%
O=C1CC(c2ccco2)CC(O)=C1C=Nc1cc(Cl)cc(Cl)c1 (centres undefined) -1.18%
CCCCc1nnc(SCC(=O)NC2CCCCC2)n1C -3.83%
CC(C)Cc1cc(C(=O)Nc2c(F)cc(F)cc2Br)no1 1.45%
COc1ccc(C2C=C(c3ccccc3)Nc3nc(NC(C)=O)nn32)cc1 (centres undefined) -11.5%
COc1ccc(/C=C/C=N/NC(=O)COc2ccc(OC)cc2)cc1 1.72%
S=C(NCCCN1CCOCC1)Nc1ccc(Cl)cc1 0.488%
O=C(Nc1cccnc1)c1cc(-c2cccs2)on1 -2.4%
CCNc1nc(SCC(=O)Nc2ccc(Cl)c(Cl)c2)nc(N2CCOCC2)n1 -1.03%

From PubChem BioAssay AID1832 (Broad Institute, 2009)
